# In all, about 81,000 sequences were measured (“one-hybrid fitness for binding parS DNA”: median about -0.17, highest 2% from about 0.51 on). This is one part of the list.
# B1: Caulobacter ParB omega fusion; a variant is named by its letters at X, in order, B8GW30 (parent)
# chain: MESVVVGEPGMSEGRRGLGRGLSALLGEVDAAPAQAPGEQLGGSREAPIEILQRNPDQPRRTFREEDLEDLSNSIREKGVLQPILVRPSPDTAGEYQIVAGERAWRAAQRAGLKTVPIMVRELDDLAVLEIGIIENVQRADLNVLEEALSYKVLMEKFERTQENIAQTIGKSXSHVANXMRLLXLPDEVQSYLVSGELTAXHARAIAAAADPVALAKQIIEGGLSVRETEALARKAPNLSAGKSKGGRPPRVKDTDTQALESDLSSVLGLDVSIDHRGSTGTLTITYATLEQLDDLCNRLTRGI
# Variants of: B1
# Test: one-hybrid fitness for binding parS DNA (scaled: cognate 1, non-cognate 0); higher = stronger binding
# Conditions: with parS DNA site
# In short: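 Pre- and post-selection plasmids were Illumina-sequenced, three replicate libraries were pooled, and any variant with under 10 reads was removed. The libraries were Caulobacter ParB with four specificity codons randomised, selected in E. coli USO through a HIS3 reporter whose site is 19 bp from the promoter. Cells grew 48 hours at 37°C on M9 without histidine, with 0.1 mM IPTG and 5 mM 3-AT. Fitness is the log change in variant-to-wild-type read ratio, rescaled against cognate and non-cognate.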
row,Variant,one-hybrid fitness for binding parS DNA
1,SIAT,≤ 0.2
2,HTAL,≤ 0.2
3,PHND,≤ 0.2
4,YRNS,0.291
5,SWWR,≤ 0.2
6,FNEG,≤ 0.2
7,VPPM,≤ 0.2
8,GGNW,≤ 0.2
9,CIDR,≤ 0.2
10,GWLT,≤ 0.2
11,QNNF,≤ 0.2
12,QADF,≤ 0.2
13,SYYR,≤ 0.2
14,NATL,≤ 0.2
15,SATH,≤ 0.2
16,QQLQ,≤ 0.2
17,QNEQ,≤ 0.2
18,LHYN,≤ 0.2
19,DWLT,≤ 0.2
20,FAHL,≤ 0.2
21,SGPN,≤ 0.2
22,VRCT,≤ 0.2
23,PEHA,≤ 0.2
24,EDSC,≤ 0.2
25,RPQY,≤ 0.2

row,Variant,one-hybrid fitness for binding parS DNA
1,TRPT,≤ 0.2
2,LHSI,≤ 0.2
3,QYSD,≤ 0.2
4,PENN,≤ 0.2
5,NHQS,≤ 0.2
6,WEHP,≤ 0.2
7,PRCG,≤ 0.2
8,RLLF,0.274
9,QTPH,≤ 0.2
10,TNHN,≤ 0.2
11,AYID,≤ 0.2
12,KGVS,≤ 0.2
13,VLFD,≤ 0.2
14,LQSS,≤ 0.2
15,HVQD,≤ 0.2
16,SQWD,≤ 0.2
17,DAGA,≤ 0.2
18,RIEL,≤ 0.2
19,HGSR,≤ 0.2
20,INYL,≤ 0.2
21,EDVS,≤ 0.2
22,VFPS,≤ 0.2
23,PPLY,≤ 0.2
24,RSRW,0.237
25,VRGR,≤ 0.2

row,Variant,one-hybrid fitness for binding parS DNA
1,AVDV,≤ 0.2
2,PQLR,≤ 0.2
3,HLKT,≤ 0.2
4,VYDG,≤ 0.2
5,DIAA,≤ 0.2
6,DCYR,≤ 0.2
7,LPEM,≤ 0.2
8,QKVI,≤ 0.2
9,TWLG,≤ 0.2
10,TTNY,≤ 0.2
11,MNQS,≤ 0.2
12,QHCF,≤ 0.2
13,RHLF,0.23
14,AEVF,≤ 0.2
15,NEYT,≤ 0.2
16,HWTM,≤ 0.2
17,ISER,≤ 0.2
18,TRSH,≤ 0.2
19,YGRT,≤ 0.2
20,SFPF,≤ 0.2
21,SMFS,≤ 0.2
22,PNYL,≤ 0.2
23,KHTM,≤ 0.2
24,RRTR,≤ 0.2
25,WMLV,≤ 0.2

row,Variant,one-hybrid fitness for binding parS DNA
1,DGWA,≤ 0.2
2,ACMS,≤ 0.2
3,ENNE,≤ 0.2
4,KIYL,≤ 0.2
5,SSAH,≤ 0.2
6,GAEG,≤ 0.2
7,FLGT,≤ 0.2
8,PMYG,≤ 0.2
9,GQPG,≤ 0.2
10,QSYW,≤ 0.2
11,NSCM,≤ 0.2
12,FDQT,≤ 0.2
13,QPHA,≤ 0.2
14,RLRS,0.875
15,YWYR,≤ 0.2
16,WDPK,≤ 0.2
17,WCDG,≤ 0.2
18,LLPM,≤ 0.2
19,LYWR,≤ 0.2
20,WHSG,≤ 0.2
21,SFDV,≤ 0.2
22,QCQG,≤ 0.2
